Source: PMC4336329 (PLoS ONE, 2015)
The whole screen tested about 310,000 compounds, of which about 2,200 (0.71%) showed an effect of 50% or more. Effects have a minus sign here. This is one part of the list.

Biological target: human ether-à-go-go-related gene (hERG) potassium channel (human, UniProt Q12809)
Assay: primary screen, population patch clamp on CHO cells stably expressing hERG

human ether-à-go-go-related gene (hERG) potassium channel, sequence (Q12809 whole entry, looked up): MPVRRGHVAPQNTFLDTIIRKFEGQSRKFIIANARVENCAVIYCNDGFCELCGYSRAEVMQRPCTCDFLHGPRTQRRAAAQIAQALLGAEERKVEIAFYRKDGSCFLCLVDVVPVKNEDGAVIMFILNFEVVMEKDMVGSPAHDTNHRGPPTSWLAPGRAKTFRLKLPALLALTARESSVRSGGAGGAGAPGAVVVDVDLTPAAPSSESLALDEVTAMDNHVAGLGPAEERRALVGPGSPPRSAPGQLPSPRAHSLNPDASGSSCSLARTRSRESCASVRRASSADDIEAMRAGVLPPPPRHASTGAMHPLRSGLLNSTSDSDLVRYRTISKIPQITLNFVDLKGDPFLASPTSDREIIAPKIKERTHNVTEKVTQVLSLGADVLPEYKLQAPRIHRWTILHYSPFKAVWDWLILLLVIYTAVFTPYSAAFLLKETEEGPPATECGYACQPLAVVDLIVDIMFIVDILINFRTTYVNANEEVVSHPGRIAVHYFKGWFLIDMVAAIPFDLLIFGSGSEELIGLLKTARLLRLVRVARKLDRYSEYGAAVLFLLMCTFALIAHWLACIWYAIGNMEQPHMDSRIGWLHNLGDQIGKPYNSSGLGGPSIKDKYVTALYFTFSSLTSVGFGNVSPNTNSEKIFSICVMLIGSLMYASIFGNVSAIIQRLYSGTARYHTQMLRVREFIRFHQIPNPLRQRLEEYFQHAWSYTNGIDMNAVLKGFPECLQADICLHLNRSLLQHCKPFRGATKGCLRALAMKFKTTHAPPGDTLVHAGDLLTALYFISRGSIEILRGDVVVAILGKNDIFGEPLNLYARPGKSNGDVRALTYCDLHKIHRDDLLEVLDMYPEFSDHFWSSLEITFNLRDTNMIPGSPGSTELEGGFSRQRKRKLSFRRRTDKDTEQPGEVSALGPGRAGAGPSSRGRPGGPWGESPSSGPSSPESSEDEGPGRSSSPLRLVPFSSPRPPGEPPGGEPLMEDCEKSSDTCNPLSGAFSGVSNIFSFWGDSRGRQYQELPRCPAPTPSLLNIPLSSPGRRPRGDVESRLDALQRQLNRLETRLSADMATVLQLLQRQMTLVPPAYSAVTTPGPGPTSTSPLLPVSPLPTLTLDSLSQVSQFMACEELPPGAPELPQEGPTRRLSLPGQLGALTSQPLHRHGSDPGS

Row | SMILES | hERG current change (%, negative = inhibition) at 1uM
1 | Cc1cc(C(=O)N/N=C\C(Br)=C\c2ccccc2)c(C)o1 | 9.64%
2 | Cn1c(CNC(=O)c2ccco2)nnc1SCC(=O)Nc1ccc(Cl)cc1 | -5.72%
3 | COc1ccccc1-n1c(-c2ccco2)n[nH]c1=S | 11.1%
4 | CCOC(=O)N1CCN(C(=O)CSc2nnc(Cc3ccccc3)o2)CC1 | 2.57%
5 | CC1=C(c2ccc(Cl)cc2)[N+](=O)C(C)(C)N1[O-] | 10.3%
6 | Cc1nnc(NC(=O)CSc2ncnc3scc(-c4ccccc4)c23)s1 | 18.6%
7 | CC(C)(C)NC(=O)CN1CCC(NC(=O)C23CC4CC(CC(C4)C2)C3)CC1 | 17.8%
8 | Cc1cc(S(=O)(=O)Nc2ccc3ccccc3c2)c(C)s1 | 0.0845%
9 | Cn1c(SCC(=O)c2ccccc2)nnc1-c1ccccn1 | 5.2%
10 | CCn1c(=O)c2c3c(sc2n2c(=S)[nH]nc12)CCC3 | 19.2%
11 | Cc1nnc(NC(=O)c2ccc3c(c2)C(=O)N(CCC(C)C)C3=O)s1 | 2.18%
12 | O=C(CCNS(=O)(=O)c1cccc2nsnc12)NCc1ccc(F)cc1 | -0.149%
13 | CC(=O)Nc1ccc(Nc2ccc3c4c(cc(=O)n3C)-c3ccccc3C(=O)c24)cc1 | 9.4%
14 | O=c1c2ccccc2nc(CNCC2CCCO2)n1-c1ccc(F)cc1 (stereo not shown) | 14.5%
15 | C/C(CC1(O)C(=O)N(Cc2ccccc2)c2ccccc21)=N\O (stereo not shown) | 4.21%
16 | Cc1cc(C)n(-c2ccc3cccc(NS(C)(=O)=O)c3n2)n1 | 20.5%
17 | Cn1cc(C(=O)N/N=C/C2=C(N3CCOCC3)C(=C\c3ccccc3)/CC2)ccc1=O | 6.35%
18 | CCC(C)c1ccc(N(C(=O)c2ccco2)C(C(=O)NC2CCCC2)c2cccnc2)cc1 (stereo not shown) | 8.33%
19 | O=C(CCn1nnc(-c2cccs2)n1)N1CCc2ccccc2C1 | 2.56%
20 | O=C(NCc1ccc2c(c1)OCO2)C1CC(=O)N(CCc2ccc(Cl)cc2)C1 (stereo not shown) | -8.47%
21 | N#Cc1cnn(-c2ccccc2)c1NC(=O)CN1CCOCC1 | 5.17%
22 | Cc1ccc(OCC(=O)Nc2ccc(C)c(S(=O)(=O)N3CCCCC3)c2)c([N+](=O)[O-])n1 | -23.7%

Row | SMILES | hERG current change (%, negative = inhibition) at 1uM
23 | CCSc1nc2c(sc3ccccc32)c(=O)n1C(C)C | 4.97%
24 | O=C(Nc1nccs1)C1CCN(S(=O)(=O)c2ccccc2)CC1 | 10.8%
25 | CC(C)C(=O)NC(=S)Nc1ccc(CN2CCOCC2)cc1 | 10.3%
26 | Nc1nc2c(ncn2COC(CO)CO)c(=O)[nH]1 | 14.3%
27 | O=S1(=O)N=C(Nc2ccc(N3CCOCC3)c(Cl)c2)c2ccccc21 | 16.3%
28 | O=c1c2ccccc2nnn1Cc1ccccc1Cl | 12.4%
29 | Cc1ncc(CN2CCC(C(=O)Nc3ccc(-n4cccn4)cc3)CC2)s1 | -6.71%
30 | COc1ccc(NC(=O)COc2ccc(-c3ccccc3)cc2)cc1 | 11.4%
31 | O=C1NC(c2ccc3c(c2)OCO3)Nc2ccccc21 (stereo not shown) | 13.5%
32 | COc1ccc(CNC(=O)C2CCCN(c3nn4c(=O)cc(C)nc4s3)C2)cc1 (stereo not shown) | -12.3%
33 | COc1ccc(NC(=S)N(CCN2CCOCC2)Cc2cc3cc4c(cc3[nH]c2=O)OCO4)cc1 | 2.95%
34 | N/C(=N\NS(=O)(=O)c1ccccc1C(F)(F)F)c1ccccn1 | 9.15%
35 | O=C(CCCN1C(=O)c2ccccc2C1=O)Nc1nccs1 | -3.26%
36 | CCOc1ccc(S(=O)(=O)Nc2nc3ccccc3nc2Nc2ccc(N3CCOCC3)cc2)cc1 | 0.261%
37 | OCC[C@@H]1C[C@H](O)[C@@H](O)[C@@]2(CCc3ccccc3CO2)O1 | 5.8%
38 | Nc1ccc2nonc2c1[N+](=O)[O-] | 7.78%
39 | Oc1ccc(N=Nc2ccccc2)cc1 | 15.1%
40 | Cc1cc(C)nc(SCC(=O)NC2CCCCC2C)n1 (stereo not shown) | 12.3%
41 | O=C(OCCCN=C1NS(=O)(=O)c2ccccc21)c1ccc([N+](=O)[O-])cc1 | 3.18%
42 | O=C1c2ccccc2S(=O)(=O)c2cc(N3CCN(c4ccccn4)CC3)ccc21 | 6.71%
43 | CCOc1cc(C)c(C(C)C)cc1S(=O)(=O)n1cnc(C)c1 | -1.92%
44 | Cc1cc(N2CCOCC2)n2ncc(-c3ccccc3Cl)c2n1 | 10%

Row | SMILES | hERG current change (%, negative = inhibition) at 1uM
45 | CC(C)(C)C1CCc2onc(C(=O)Nc3cccnc3)c2C1 (stereo not shown) | -9.24%
46 | COc1cc(C(=O)OCC#N)ccc1OCc1c(C)noc1C | 5.66%
47 | O=C(N/N=C/c1cccnc1)c1ccccc1Cl | 14.9%
48 | O=C(COC(=O)CSc1nnc(-c2ccc(Cl)cc2)o1)Nc1cc(Cl)cc(Cl)c1 | 14.3%
49 | COc1ccc2c(c1)CC/C2=N\OC(=O)c1ccccc1OC | 8.27%
50 | COc1ccc(C(=O)NCc2cc(C)nc3ccccc23)cc1 | -12.4%
51 | O=C(COC(=O)c1ccccc1O)NC(=O)c1ccc(OC(F)F)cc1 | 13.1%
52 | C#CCn1c(=NC(=O)c2ccc(Cl)s2)sc2cccc(OC)c21 | 14.9%
53 | COc1cc(NC(=O)CCN2C(=O)NC3(CCCC3)C2=O)c(OC)cc1Cl | 8.46%
54 | CCOC(=O)c1ccc(NC(=O)CCC(=O)NCc2ccco2)cc1 | 13.9%
55 | O=C(CSc1nnc(-c2ccc(Br)o2)n1Cc1ccccc1)c1ccccc1F | 7.1%
56 | COc1cccc(C2CCCCN(C)C2=O)c1 (stereo not shown) | -4.09%
57 | COc1ccc(C(=O)N/N=C(\C)CC(=O)Nc2ccc(Cl)cn2)cc1 | -0.497%
58 | CCN1CCN(c2ccc(S(=O)(=O)N3CCCCC3)cc2NC(=O)c2ccc(C)o2)CC1 | -62.4%
59 | Cc1ccc(-n2[nH]c(C)c(C=Nc3ccc(S(=O)(=O)Nc4nccs4)cc3)c2=O)cc1 | 3.63%
60 | O=C(/C=C/c1cccs1)Nc1nc(-c2ccccc2)cs1 | -10%
61 | CCOC(=O)c1nnn(CC(=O)N2N=C(c3ccc(Cl)cc3)CC2c2ccccc2)c1C(=O)OCC (stereo not shown) | -18.7%
62 | CN(C)c1ccc(CNc2nc3ccccc3s2)cc1 | 11.5%
63 | Cc1cccc2c(N=Nc3ccc(S(=O)(=O)Nc4cccc(Cl)c4)cc3[N+](=O)[O-])c(O)[nH]c12 | 27.8%
64 | CC1CC(C)CN(c2cc3c(cc2[N+](=O)[O-])C(=O)N(c2ccccc2)C3=O)C1 (stereo not shown) | 6.1%
65 | CCN(C(=O)COC(=O)c1ccccc1Nc1cccc(C)c1C)C1CCS(=O)(=O)C1 (stereo not shown) | 6.11%
66 | O=C(CCNS(=O)(=O)c1cccc2nsnc12)NC1CCCc2ccccc21 (stereo not shown) | 17.9%

Row | SMILES | hERG current change (%, negative = inhibition) at 1uM
67 | Cc1noc(C)c1COc1ccc(C(=O)NCCOc2ccccc2)cc1 | -5.33%
68 | COC(=O)C1=C(C)NC2=C(C(=O)CC(C)(C)C2)C1c1ccsc1 (stereo not shown) | 6.37%
69 | Cn1nccc1C(=O)Nc1sc2c(c1C#N)CCCC2 | 12.2%
70 | O=C(CN(Cc1ccc(F)cc1)C(=O)c1ccco1)NCc1ccc(F)cc1 | -13.6%
71 | Cn1c(=O)c2c(ncn2CC(=O)Nc2nc(-c3ccccc3Cl)cs2)n(C)c1=O | 4.56%
72 | Cc1ccccc1NC(=O)c1cnn(-c2ccccc2)c1NC(=O)c1ccco1 | 4.25%
73 | CCOc1ccccc1NC(=O)c1ccccc1-c1nc(-c2ccccc2)no1 | 12.4%
74 | COc1ccccc1-n1nnnc1SCC(=O)NCC1(N2CCOCC2)CCCCC1 | -4.87%
75 | Cc1cc(C)c(C)c(OCCCOc2cccc3cccnc23)c1 | 7.64%
76 | Cc1nc(SCC(=O)c2ccc(Cl)s2)c2oc3ccccc3c2n1 | 4.35%
77 | c1ccc(N2CCN(c3ccc4nncn4n3)CC2)nc1 | -15.7%
78 | Cc1c(NC(=S)NC(=O)C(c2ccccc2)c2ccccc2)cccc1C(=O)O | 3.49%
79 | CC1CCCCC12NC(=O)N(CC(=O)OCc1ccc(Br)cc1)C2=O (stereo not shown) | 12.7%
80 | O=C(COC(=O)CN1C(=O)C2CCCCC2C1=O)Nc1cc(S(=O)(=O)N2CCOCC2)ccc1Cl (stereo not shown) | 14.7%
81 | COc1ccc(S(=O)(=O)N(CC(=O)N/N=C/c2ccccc2C(=O)O)c2ccccc2OC)cc1 | 15%
82 | CCN=C1S/C(=C\c2ccc(OCC)c(OC)c2)C(=O)N1CC | 13.1%
83 | COc1cc(NC(=O)c2ccccc2Cl)ccc1NC(=O)c1cccs1 | 6.22%
84 | CCOc1ccc(/C=N/NC(=O)c2cccc3ccccc23)c(OCC)c1 | 13.6%
85 | COC(=O)c1ccsc1NS(=O)(=O)c1ccccc1 | 13.9%
86 | COCc1cccc(NC(=O)Cc2cccc3ccccc23)c1 | 13.6%
87 | CC(C)OCCCNC(=O)C1CCN(S(=O)(=O)N2CCCC2)CC1 | 8.54%
88 | CC(C)CC(NC=C1C(=O)OC(C)(C)OC1=O)C(=O)O (stereo not shown) | 4.64%
